# Assay results: PubChem BioAssay (Tox21)
# This list was built around the results that the source calls inconclusive (neither active nor inactive); the mix of calls is not that of the screen. For some of these results: Where the call is inconclusive, the potency comes from a doubtful curve fit. Where a structure was tested more than once in an assay, its records may differ in their call. Activity calls are given as the source filed them. Unless noted, calls follow the shape of the dose curve; as a rule, active = well fitted curve in the direction sought with a large enough effect in the repeat runs; inconclusive = weak or mixed curves; inactive = no such curve, though single readings can be large; an effect the other way counts as inactive or inconclusive.
# Legend:
# [1] = qHTS assay to identify small molecule antagonists of the vitamin D receptor (VDR) signaling pathway - cell viability counter screen (AID 743225); conditions: VDR-bla HEK293T viability, CellTiter-Glo luminescence, 16 h; viability change, negative = cytotoxic: at 61 µM (top of the series) unless noted; also: nearly all actives have a fitted effect of over 50% in size; also: potency is read from the fitted curve at half-maximal effect
# Method in brief: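 VDR-UAS-bla HEK 293T cells were plated and incubated 4 h at 37C, then dosed with compound plus 3 nM (final) 1-alpha,25-dihydroxyvitamin D3 for 16 h. After the 2 h beta-lactamase read, viability in the same wells was read as CellTiter-Glo luminescence after 30 min at room temperature.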
# [2] = target: Thyrotropin receptor (Homo sapiens) (UniProt P16473); test: qHTS assay to identify small molecule agonists of the thyroid stimulating hormone receptor (TSHR) signaling pathway (AID 1224843; calls by dose curve; also: % is scaled to controls: 0 for no effect and ±100 for the full control effect; nearly all actives have a fitted effect of over 45% in size); conditions: TSHR-HEK293 cells, cAMP HTRF, agonist mode, 30 min; activation: at 92.4 µM (top of the series) unless noted
# Method in brief: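 TSHR-expressing HEK293 cells (800 per well) were exposed to compounds for 30 min at room temperature. cAMP was then detected by HTRF competition with cAMP-d2 and anti-cAMP cryptate, read after 1 h at room temperature. Fifteen concentrations, triplicate.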
# [3] = qHTS assay to identify small molecule agonists of the farnesoid-X-receptor (FXR) signaling pathway - cell viability counter screen (AID 743218); conditions: FXR-bla HEK293T viability, CellTiter-Glo luminescence, 16 h; viability change, negative = cytotoxic: at 62.6 µM (top of the series); also: potency is read from the fitted curve at half-maximal effect; nearly all actives have a fitted effect of over 45% in size
# Method in brief: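 In GeneBLAzer FXR-UAS-bla HEK 293T cells, compounds act for 16 h at 37 C. Cell viability is then scored in the reporter wells by CellTiter-Glo, 30 min at RT, luminescence.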
# [4] = qHTS assay to identify small molecule agonists of the estrogen receptor beta (ER-beta) signaling pathway - cell viability counter screen (AID 1259380); also: nearly all actives have a fitted effect of over 30% in size; also: potency is read from the fitted curve at half-maximal effect; as to activity change, negative = cytotoxicity: % is scaled to controls: 0 for no effect and ±100 for the full control effect
# Method in brief: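 Viability of ER-beta-UAS-bla HEK293T cells was determined by CellTiter-Glo luminescence following 16 hr treatment with test compounds at 37C.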
# [5] = qHTS assay for identifying genotoxic compounds that show differential cytotoxicity against isogenic chicken DT40 cell lines with known DNA damage response pathways - Rad54/Ku70 mutant cell line (AID 743015); conditions: DT40 Rad54/Ku70 mutant viability, CellTiter-Glo, 40 h; activity change, negative = cytotoxicity: at 66.8 µM (top of the series); also: potency is read from the fitted curve at half-maximal effect; nearly all actives have a fitted effect of over 60% in size
# [6] = target: Estrogen receptor (Homo sapiens) (UniProt P03372); test: qHTS assay to identify small molecule antagonists of the estrogen receptor alpha (ER-alpha) signaling pathway (AID 743069; active = well fitted curve in the direction sought with a large enough effect in the signal ratio in the repeat runs, not every such curve was filed as active; inconclusive = weak or mixed curves, or effect the other way; inactive = no such curve, though single readings can be large or run the other way; the % refers to the signal ratio; also: % is scaled to controls: 0 for no effect and ±100 for the full control effect); conditions: HEK293 ER-alpha-UAS-bla, beta-lactamase ratio, antagonist mode; activity, negative = inhibition: at 69.4 µM (top of the series) unless noted
# Method in brief: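 HEK293 cells stably carrying an ER-alpha-UAS-bla beta-lactamase reporter were pre-cultured overnight in 2% charcoal-stripped FBS medium. Test compounds in DMSO were added together with 17beta-estradiol for 18 hr at 37C. Read-out was fluorescence after 2 hr with LiveBLAzer B/G FRET substrate at room temperature.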
# [7] = qHTS assay to identify small molecule agonists of the constitutive androstane receptor (CAR) signaling pathway - cell viability counter screen (AID 1224836); also: nearly all actives have a fitted effect of over 45% in size; also: potency is read from the fitted curve at half-maximal effect; as to viability change, negative = cytotoxic: % is scaled to controls: 0 for no effect and ±100 for the full control effect
# Method in brief: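 HepG2 cells stably carrying hCAR and a CYP2B6-2.2kb reporter; 15-concentration compounds plus PK11195 (final 0.75 uM), 23 hr at 37 C/5% CO2. Viability read by CellTiter-Fluor fluorescence.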
# [8] = qHTS assay to identify small molecule agonists of H2AX - cell viability counter screen (AID 1224847; calls by dose curve; also: potency is read from the fitted curve at half-maximal effect; nearly all actives have a fitted effect of over 30% in size)
# Method in brief: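 CHO-K1 cells plated overnight at 37C, then exposed 3 h at 37C to compounds at 15 concentrations (0.76% DMSO final). Viability by CellTiter-Glo luminescence after 30 min at room temperature.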
# [9] = qHTS RealTime-Glo MT Cell Viability Assay in HEK293 cells - 32 hour (AID 1224868); also: nearly all actives have a fitted effect of over 50% in size; also: potency is read from the fitted curve at half-maximal effect
# Method in brief: (§1)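 Viability tracked continuously by luminescence as live cells reduce a prosubstrate for NanoLuc; HEK293 cells preincubated 5 h, compound-treated at 37 C, and read at 0, 8, 16, 24, 32 and 40 h.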
# [10] = qHTS RealTime-Glo MT Cell Viability Assay in HEK293 cells - 16 hour (AID 1224872); also: potency is read from the fitted curve at half-maximal effect; nearly all actives have a fitted effect of over 50% in size
# Method in brief: as §1
# [11] = qHTS RealTime-Glo MT Cell Viability Assay in HEK293 cells - 24 hour (AID 1224886); also: potency is read from the fitted curve at half-maximal effect; nearly all actives have a fitted effect of over 50% in size
# Method in brief: as §1
# [12] = qHTS assay to identify small molecule antagonists of the sonic hedgehog signaling (Shh) pathway (AID 1259369; calls by dose curve; also: potency is read from the fitted curve at half-maximal effect; nearly all actives have a fitted effect of over 45% in size)
# Method in brief: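 Screening used 3T3Gli1-Luc cells at 2,000 per well, compounds delivered in DMSO, and conditioned medium as agonist stimulus; plates incubated 24hr at 37 C and 5% CO2 before a 30min luciferase step.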
# [13] = target: Estrogen receptor beta (Homo sapiens) (UniProt Q92731); test: qHTS assay to identify small molecule agonists of the estrogen receptor beta (ER-beta) signaling pathway (AID 1259377; active = well fitted activation curve with a large enough effect in the signal ratio in the repeat runs, not every such curve was filed as active; inconclusive = weak or mixed curves, or effect the other way; the % refers to the signal ratio; also: potency is read from the fitted curve at half-maximal effect); conditions: ER-beta-UAS-bla HEK293T, beta-lactamase FRET ratio, 16 h; activation: at 92.4 µM (top of the series) unless noted
# Method in brief: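 ER-beta-UAS-bla HEK293T cells in medium with 2% charcoal-stripped FBS were exposed to compounds for 16 h at 37C. Beta-lactamase reporter activity was read as fluorescence after 2 h with LiveBLAzer B/G FRET substrate at room temperature.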
# [14] = qHTS assay to identify small molecule antagonists of the progesterone receptor (PR) signaling pathway - cell viability counter screen (AID 1346798); also: nearly all actives have a fitted effect of over 50% in size; also: potency is read from the fitted curve at half-maximal effect; as to activity change, negative = cytotoxicity: % is scaled to controls: 0 for no effect and ±100 for the full control effect
# Method in brief: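 PR-UAS-bla HEK293T cells, 3,000/well in 2% charcoal-stripped FBS medium, dosed with compounds plus R5020 agonist and incubated 16 h at 37C. Viability then measured in the same wells by CellTiter-Glo luminescence after 30 min at RT.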
# [15] = qHTS assay to identify small molecule agonists of the progesterone receptor (PR) signaling pathway - cell viability counter screen (AID 1346799; calls by dose curve; also: nearly all actives have a fitted effect of over 45% in size; also: potency is read from the fitted curve at half-maximal effect)
# Method in brief: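 Counter screen in the PR-UAS-bla HEK293T wells (2% charcoal-stripped FBS, 16 h compound exposure at 37 C) after the bla read. CellTiter-Glo added, 30 min at room temperature, luminescence read as cell viability.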
# [16] = target: Nuclear receptor subfamily 1 group I member 3 (Homo sapiens) (UniProt Q14994); test: qHTS assay to identify small molecule agonists of the constitutive androstane receptor (CAR) signaling pathway (AID 1224839); also: nearly all actives have a fitted effect of over 15% in size; also: potency is read from the fitted curve at half-maximal effect
# Method in brief: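 HepG2 cells stably co-transfected with hCAR and a CYP2B6-2.2kb luciferase reporter; compounds at 15 concentrations with 0.75 uM PK11195 present. After 24 hr at 37 C, luciferase read by ONE-Glo luminescence.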
# [17] = target: Nuclear receptor subfamily 1 group I member 2 (Homo sapiens) (UniProt O75469); test: Human pregnane X receptor (PXR) small molecule agonists, qHTS assay (AID 1346982); also: potency is read from the fitted curve at half-maximal effect; nearly all actives have a fitted effect of over 35% in size
# Method in brief: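 Luminescence (ONE-Glo, 30 min RT) after 24 hr compound exposure of PXR-Luc HepG2 cells; cells rested 5 hr post-plating in 5% charcoal-stripped FBS medium.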
# [18] = target: Peroxisome proliferator-activated receptor delta (Homo sapiens) (UniProt Q03181); test: qHTS assay to identify small molecule antagonists of the peroxisome proliferator-activated receptor delta (PPARd) signaling pathway (AID 743215; active = well fitted inhibition curve with a large enough effect in the signal ratio in the repeat runs, not every such curve was filed as active; inconclusive = weak or mixed curves, or effect the other way; inactive = no such curve, though single readings can be large or run the other way; the % refers to the signal ratio;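 also: cells stimulated with agonist L165041 at 300 nM final during compound exposure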; also: potency is read from the fitted curve at half-maximal effect); conditions: HEK293H PPARd-UAS-bla, beta-lactamase FRET ratio, antagonist, 17 h; ratio activity, negative = inhibition: at 62 µM (top of the series) unless noted
# Method in brief: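 Antagonist-mode beta-lactamase reporter screen: HEK293H cells with UAS-bla under PPARd control, stimulated by 300 nM L165041 (final) alongside test compound for 17 h at 37 C, then FRET fluorescence after 2 h substrate incubation.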
# [19] = target: Cytochrome P450 3A4 (Homo sapiens) (UniProt P08684); test: Cytochrome P450 Family 3 Subfamily A Member 4 (CYP3A4) small molecule antagonists: luciferase reporter qHTS assay (AID 1671201); also: nearly all actives have a fitted effect of over 50% in size; also: potency is read from the fitted curve at half-maximal effect
# Method in brief: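 P450-Glo CYP3A4 luminescent assay: compounds preincubated 10 min at room temperature with enzyme and proluciferin substrate, NADPH regeneration added, 1 h room-temperature reaction, stopped with luciferin detection reagent; luminescence read after 20 min. Ketoconazole positive control.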
# [20] = qHTS assay for small molecule agonists of the p53 signaling pathway (AID 651631; calls by dose curve; also: % is scaled to controls: 0 for no effect and ±100 for the full control effect; nearly all actives have a fitted effect of over 15% in size); conditions: HCT-116 p53RE-bla reporter, beta-lactamase FRET ratio, 16 h; activation: at 73.3 µM (top of the series) unless noted
# Method in brief: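 HCT-116 cells carrying a beta-lactamase reporter under p53 response elements were dosed with compound for 16 h at 37 °C. LiveBLAzer B/G FRET substrate was then added for 2 h at room temperature, and fluorescence intensity was read to detect pathway agonism.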
# Tags tell the direction and shape of the fitted curve or compound fluorescence and quenching.
# UniProt Q92731, sequence (Q92731 whole entry, looked up): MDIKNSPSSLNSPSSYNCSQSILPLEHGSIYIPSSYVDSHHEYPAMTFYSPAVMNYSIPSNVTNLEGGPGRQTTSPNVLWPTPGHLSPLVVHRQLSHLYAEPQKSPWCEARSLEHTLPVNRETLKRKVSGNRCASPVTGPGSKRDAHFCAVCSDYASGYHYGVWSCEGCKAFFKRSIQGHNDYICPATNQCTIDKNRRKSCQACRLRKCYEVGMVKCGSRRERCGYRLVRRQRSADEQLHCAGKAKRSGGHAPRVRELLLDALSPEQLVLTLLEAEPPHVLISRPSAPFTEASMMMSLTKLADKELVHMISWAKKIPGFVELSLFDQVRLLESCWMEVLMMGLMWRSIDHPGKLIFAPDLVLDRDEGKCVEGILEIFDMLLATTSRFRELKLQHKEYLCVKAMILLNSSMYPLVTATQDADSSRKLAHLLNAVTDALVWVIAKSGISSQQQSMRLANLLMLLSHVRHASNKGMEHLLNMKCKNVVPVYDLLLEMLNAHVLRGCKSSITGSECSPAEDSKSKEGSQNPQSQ
# UniProt P08684, sequence (P08684 whole entry, looked up): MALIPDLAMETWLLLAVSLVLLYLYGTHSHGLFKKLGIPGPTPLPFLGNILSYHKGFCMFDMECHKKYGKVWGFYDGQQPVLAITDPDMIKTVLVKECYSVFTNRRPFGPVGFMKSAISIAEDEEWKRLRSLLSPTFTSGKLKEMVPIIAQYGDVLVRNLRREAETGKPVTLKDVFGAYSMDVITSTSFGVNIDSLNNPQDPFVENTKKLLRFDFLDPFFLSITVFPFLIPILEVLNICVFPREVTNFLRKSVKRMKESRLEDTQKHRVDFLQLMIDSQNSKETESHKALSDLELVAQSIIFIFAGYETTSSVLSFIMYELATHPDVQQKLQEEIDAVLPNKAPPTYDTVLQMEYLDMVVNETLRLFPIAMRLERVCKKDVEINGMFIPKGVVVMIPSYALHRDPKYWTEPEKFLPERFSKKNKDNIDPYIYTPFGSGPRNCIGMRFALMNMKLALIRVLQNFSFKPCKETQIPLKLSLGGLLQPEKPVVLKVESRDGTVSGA
# UniProt O75469, sequence (O75469 whole entry, looked up): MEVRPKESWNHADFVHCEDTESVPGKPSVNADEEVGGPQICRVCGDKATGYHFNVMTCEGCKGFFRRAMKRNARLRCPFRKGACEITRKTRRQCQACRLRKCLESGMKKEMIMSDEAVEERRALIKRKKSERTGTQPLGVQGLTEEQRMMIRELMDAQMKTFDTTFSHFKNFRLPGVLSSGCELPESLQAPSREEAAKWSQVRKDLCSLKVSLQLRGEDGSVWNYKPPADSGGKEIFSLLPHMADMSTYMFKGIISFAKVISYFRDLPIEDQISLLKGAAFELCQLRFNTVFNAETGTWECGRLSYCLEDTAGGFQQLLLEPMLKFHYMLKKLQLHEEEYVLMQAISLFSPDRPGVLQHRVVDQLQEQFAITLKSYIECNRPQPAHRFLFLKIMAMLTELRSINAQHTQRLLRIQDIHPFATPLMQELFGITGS
# UniProt Q03181, sequence (Q03181 whole entry, looked up): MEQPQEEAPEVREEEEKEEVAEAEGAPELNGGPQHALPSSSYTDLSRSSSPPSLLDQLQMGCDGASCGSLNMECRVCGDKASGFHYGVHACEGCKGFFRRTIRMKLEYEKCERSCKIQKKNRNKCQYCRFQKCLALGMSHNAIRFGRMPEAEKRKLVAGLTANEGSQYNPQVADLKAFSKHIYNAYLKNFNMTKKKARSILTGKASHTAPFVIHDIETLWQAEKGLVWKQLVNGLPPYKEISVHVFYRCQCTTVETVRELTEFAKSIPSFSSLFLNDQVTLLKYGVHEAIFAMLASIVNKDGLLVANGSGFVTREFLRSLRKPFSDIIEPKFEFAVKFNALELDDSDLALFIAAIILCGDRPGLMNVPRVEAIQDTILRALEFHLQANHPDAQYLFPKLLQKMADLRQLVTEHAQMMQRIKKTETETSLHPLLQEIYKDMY
# UniProt P03372, sequence (P03372 whole entry, looked up): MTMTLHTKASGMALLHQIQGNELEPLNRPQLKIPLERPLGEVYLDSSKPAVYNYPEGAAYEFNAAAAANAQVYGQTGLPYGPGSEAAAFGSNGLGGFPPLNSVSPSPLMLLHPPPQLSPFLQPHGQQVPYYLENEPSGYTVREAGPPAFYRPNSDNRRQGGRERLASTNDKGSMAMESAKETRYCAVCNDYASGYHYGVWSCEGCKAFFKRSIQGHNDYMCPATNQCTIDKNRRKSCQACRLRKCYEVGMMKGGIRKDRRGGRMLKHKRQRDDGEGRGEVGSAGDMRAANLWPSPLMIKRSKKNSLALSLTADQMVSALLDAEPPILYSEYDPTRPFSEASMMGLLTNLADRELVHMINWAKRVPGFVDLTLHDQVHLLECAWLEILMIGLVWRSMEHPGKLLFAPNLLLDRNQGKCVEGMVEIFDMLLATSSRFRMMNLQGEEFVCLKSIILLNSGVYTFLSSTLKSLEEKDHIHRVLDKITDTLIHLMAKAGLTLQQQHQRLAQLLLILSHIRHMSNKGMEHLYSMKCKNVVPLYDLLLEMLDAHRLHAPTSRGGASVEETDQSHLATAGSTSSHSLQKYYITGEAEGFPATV
# UniProt Q14994, sequence (Q14994 whole entry, looked up): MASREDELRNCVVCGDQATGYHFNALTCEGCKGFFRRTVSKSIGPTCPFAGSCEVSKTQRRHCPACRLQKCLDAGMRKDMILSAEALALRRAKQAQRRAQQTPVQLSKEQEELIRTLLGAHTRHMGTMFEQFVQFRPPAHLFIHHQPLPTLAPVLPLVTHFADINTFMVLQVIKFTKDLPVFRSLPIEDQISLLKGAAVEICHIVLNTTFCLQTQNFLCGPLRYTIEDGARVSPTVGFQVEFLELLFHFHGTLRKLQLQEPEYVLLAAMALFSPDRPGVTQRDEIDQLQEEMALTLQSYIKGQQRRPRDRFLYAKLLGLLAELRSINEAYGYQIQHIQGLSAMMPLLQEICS
# UniProt P16473, sequence (P16473 whole entry, looked up): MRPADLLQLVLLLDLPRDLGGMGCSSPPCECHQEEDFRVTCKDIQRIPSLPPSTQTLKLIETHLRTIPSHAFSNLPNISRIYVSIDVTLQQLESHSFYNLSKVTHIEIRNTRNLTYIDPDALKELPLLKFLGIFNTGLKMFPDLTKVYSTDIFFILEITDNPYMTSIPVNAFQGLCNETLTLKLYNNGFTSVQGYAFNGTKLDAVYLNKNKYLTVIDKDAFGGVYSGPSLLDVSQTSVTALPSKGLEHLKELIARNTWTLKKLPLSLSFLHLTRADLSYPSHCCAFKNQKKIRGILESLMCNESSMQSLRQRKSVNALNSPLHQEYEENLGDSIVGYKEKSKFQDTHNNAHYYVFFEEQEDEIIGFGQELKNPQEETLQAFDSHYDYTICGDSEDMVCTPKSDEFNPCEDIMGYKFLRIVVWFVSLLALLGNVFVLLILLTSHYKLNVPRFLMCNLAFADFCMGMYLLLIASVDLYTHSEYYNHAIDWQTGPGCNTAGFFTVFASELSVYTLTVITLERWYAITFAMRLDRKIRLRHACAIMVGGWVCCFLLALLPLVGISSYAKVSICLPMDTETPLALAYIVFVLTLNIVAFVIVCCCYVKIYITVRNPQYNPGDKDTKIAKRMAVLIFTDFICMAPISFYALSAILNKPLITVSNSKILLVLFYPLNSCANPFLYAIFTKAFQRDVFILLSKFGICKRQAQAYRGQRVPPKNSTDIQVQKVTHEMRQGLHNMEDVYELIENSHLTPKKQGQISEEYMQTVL
smiles,measurement,setting,value
COc1cc(OC)nc(Sc2cccc(Cl)c2C(=O)O)n1,Potency,[1],"inconclusive: 1.95 µM [cytotoxic, full curve, poor fit]"
same,Potency,[2],inactive
CCOS(C)(=O)=O,Potency,[3],inconclusive: 0.0013 µM [cytotoxic]
same,Potency,[4],inactive
COc1ccc2c(c1OC)CN1CCc3cc4c(cc3C1C2)OCO4 (stereo not drawn),Potency,[5],"inconclusive: 14.3 µM [cytotoxic, single point]"
same,"activity, negative = inhibition",[6],inconclusive: 41.2% [at 32.6 µM]
same,Potency,[1],"inconclusive: 5.35 µM [cytotoxic, full curve, poor fit]"
same,Potency,[7],inactive
same,Potency,[8],"inconclusive: 55.2 µM [cytotoxic, single point]"
same,Potency,[9],"inconclusive: 9.52 µM [cytotoxic, partial curve, poor fit]"
same,Potency,[10],"inconclusive: 9.52 µM [cytotoxic, partial curve, poor fit]"
same,Potency,[11],"inconclusive: 5.35 µM [cytotoxic, partial curve, poor fit]"
same,Potency,[12],"inconclusive: 0.75 µM [inhibitor, full curve]"
same,Potency,[13],"inconclusive: 13.3 µM [rising, partial curve]"
same,Potency,[4],active: 9.44 µM
same,Potency,[14],inactive
same,Potency,[15],inactive
Fc1ccc(C2(Cn3cncn3)OC2c2ccccc2Cl)cc1 (stereo not drawn),Potency,[5],active: 27.3 µM
same,"activity, negative = inhibition",[6],inconclusive: -23.7%
same,Potency,[1],"inconclusive: 11 µM [cytotoxic, partial curve, poor fit]"
same,Potency,[7],"inconclusive: 68.6 µM [cytotoxic, partial curve, poor fit]"
same,Potency,[16],inactive
same,Potency,[2],inactive
same,Potency,[9],active: 43.6 µM
same,Potency,[10],"inconclusive: 43.6 µM [cytotoxic, partial curve]"
same,Potency,[11],active: 43.6 µM
same,Potency,[12],"inconclusive: 34.4 µM [inhibitor, partial curve, poor fit]"
same,Potency,[13],inactive
same,Potency,[15],"inconclusive: 61.1 µM [rising, single point]"
same,Potency,[17],"inconclusive: 15.4 µM [activator, partial curve]"
Nc1cccc(Cl)c1,Potency,[18],"inconclusive: 275 µM [rising, single point]"
same,"viability change, negative = cytotoxic",[1],inconclusive: 1.94% [cytotoxic] [at 78.8 µM]
same,Potency,[9],active: 21.9 µM
same,Potency,[10],"inconclusive: 24.5 µM [cytotoxic, partial curve]"
same,Potency,[11],"inconclusive: 21.9 µM [cytotoxic, partial curve]"
same,Potency,[12],"inconclusive: 1.74 µM [inhibitor, single point]"
same,Potency,[19],"inconclusive: 40.4 µM [inhibitor, partial curve] and inactive"
Cc1nc2ccccc2c(=O)n1-c1ccccc1Cl,Potency,[5],"inconclusive: 67.1 µM [cytotoxic, single point]"
same,Potency,[7],"inconclusive: 23.8 µM [cytotoxic, partial curve]"
same,Potency,[10],"inconclusive: 19.1 µM [cytotoxic, partial curve]"
same,Potency,[12],"inconclusive: 6.71 µM [inhibitor, full curve]"
same,Potency,[4],inactive
CN(C)NC(=O)CCC(=O)O,"ratio activity, negative = inhibition",[18],inconclusive: -30.9% [at 80.4 µM]
same,Potency,[3],"inconclusive: 8.85 µM [rising, partial curve, poor fit]"
same,Potency,[13],inactive
ClCc1cccnc1,Potency,[3],"inconclusive: 7.62 µM [rising, partial curve, poor fit]"
same,Potency,[7],inactive
C=C(C)[C@@H]1CC=C(C=O)CC1,Potency,[5],active: 54.5 µM
same,Potency,[3],"inconclusive: 0.138 µM [rising, full curve, poor fit]"
same,Potency,[15],inactive
same,Potency,[17],inconclusive: 68.6 µM [activator]
NC(=O)CN1CCCC1=O,Potency,[8],"inconclusive: 1.79 µM [cytotoxic, single point]"
same,Potency,[9],inactive
CCNc1nc(Cl)nc(NC(C)(C)C)n1,Potency,[5],"inconclusive: 68.6 µM [cytotoxic, single point]"
same,Potency,[7],inactive
same,Potency,[16],"inconclusive: 34.4 µM [activator, partial curve]"
same,Potency,[13],active: 27.3 µM
COC(=O)c1ccc(CBr)cc1,Potency,[12],"inconclusive: 77.9 µM [inhibitor, single point]"
same,Potency,[14],inactive
same,Potency,[19],"inconclusive: 40.4 µM [inhibitor, partial curve]"
CCOP(=S)(OCC)Oc1nc(Cl)n(C(C)C)n1,Potency,[5],"inconclusive: 68.6 µM [cytotoxic, single point]"
same,Potency,[1],"inconclusive: 0.776 µM [cytotoxic, single point]"
same,Potency,[15],"inconclusive: 61.1 µM [cytotoxic, single point]"
same,Potency,[19],active: 1.59 µM
CCCCc1c(C)nc(NCC)nc1OS(=O)(=O)N(C)C,Potency,[20],inactive
same,Potency,[8],"inconclusive: 113 µM [cytotoxic, single point]"
same,Potency,[9],active: 11 µM
same,Potency,[10],active: 12.3 µM
same,Potency,[12],active: 61.1 µM
same,Potency,[14],"inconclusive: 34.4 µM [rising, full curve]"
same,Potency,[15],"inconclusive: 48.6 µM [rising, partial curve]"
same,Potency,[17],active: 9.69 µM
same,Potency,[19],active: 12.6 µM
